Several values for one entry are separate records, joined by “and”; a condition that tells them apart may be missing. Equal values may be shown once. Hit rate of the full screen: of about 110,000 compounds, about 40 (0.04%) were called active. Inconclusive means that the source gave no clear call. Such entries were picked first, then a sample of the others. Calls follow the shape of the dose curve; as a rule, active = well fitted curve in the direction sought with a large enough effect in the signal ratio (not every such curve was filed as active); inconclusive = small, poorly fitted or top-dose-only effect, or a change in a side signal; inactive = flat fitted curve, though single readings scatter; the % refers to the signal ratio. Potencies of inconclusive entries are doubtful fits and often do not repeat.
assay: IkB Signaling; conditions: ABC-DLBCL IkBa-CBG/CBR dual luciferase ratio (green luciferase fused to IkBa over red control in OCI-Ly3 lymphoma cells), 4 h; IkBa stabilization activation: at 57.1 µM (top of the series), scaled: untreated 0%, proteasome inhibitor 100% unless noted;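 as to IkBa stabilization activation: 0% = basal untreated cells and 100% = reference inhibitor full response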
Summary of the method: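 Curves were fitted separately to fusion (green), unfused (red) and ratio luminescence, then classed by r2, magnitude and activity. Cells: OCI-Ly3, 4 h compound plus doxycycline at 37C; 10 uM MG-132 defined full response.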
Potency is read from the fitted curve at half-maximal effect.

Row | SMILES | IkBa stabilization activation | Potency
1 | CSc1ccc(C2c3[nH]c4ccccc4c3CCN2C(=O)CCc2ccccc2)cc1 (configuration not stated) | inconclusive: -1.48% [signal inhibitor] | –
2 | COc1ccc(-c2cn3cccnc3n2)cc1NC(=O)c1c(F)cccc1F | inactive | –
3 | COc1cc(Cl)c(C)cc1NC(=O)CCn1c(=O)c2cccn2c2cccnc21 | inactive | –
4 | C=CC(=O)OCCOCCOCCOCCOC(=O)C=C | – | inconclusive: 15.8 µM [rising, partial curve] and inconclusive: 31.6 µM [rising, partial curve]
5 | O=C(c1ccc(F)cc1)C(CN1CCOCC1)c1ccccc1 (configuration not stated) | – | inconclusive: 3.16 µM [rising, partial curve]
6 | Cc1ccc(-n2nc3c(=O)n(CCCC(=O)NCCc4ccccc4)nc(C)c3c2C)cc1 | inconclusive: 1.02% [signal inhibitor] | –
7 | COCCNC(=O)c1ccccc1-c1nc(-c2ccccc2OC)no1 | inactive | –
8 | Cc1ccccc1-c1nc(CN2CCCC(C(=O)NCc3ccc(Cl)cc3)C2)c(C)o1 (configuration not stated) | inconclusive: -1.79% [signal inhibitor] | –
9 | CCN(C(=O)Cn1c(C(=O)OC)cc2sc(Cl)cc21)c1cccc(C)c1 | inconclusive: 1.26% [signal inhibitor] | –
10 | CCc1ccc(S(=O)(=O)c2cn(CC(=O)Nc3ccc(F)c(Cl)c3)c3ccccc3c2=O)cc1 | inconclusive: 9.92% [signal inhibitor] | –
11 | CCn1cc(C(=O)NCCCOC)c(=O)c2cc(S(=O)(=O)N(C)C)ccc21 | inactive | –
12 | COc1ccc(C2C(=O)N(C3CCCCC3)CC(=O)N2CCc2ccc(C)cc2)cc1OC (configuration not stated) | inconclusive: -2.28% [signal inhibitor] | –
13 | COc1nnc(-c2ccc(N3CCOCC3)c(NC(C)=O)c2)c2ccccc12 | inactive | –
14 | CCOc1cc(C(=O)N(C)c2ccccc2)cc(OCC)c1OCC | inactive | –
15 | COc1cccc(-n2nnc3c(=O)n(Cc4cccc(C)c4)cnc32)c1 | inactive | –
16 | CCOC(=O)c1c(C)[nH]c(C(=O)Nc2ccc3c(c2)OCO3)c1C | inactive | –
17 | Cc1ccc(CN2C(=O)C(O)(c3c(C)[nH]c4ccccc34)c3ccccc32)cc1 (configuration not stated) | inconclusive: 4.55% [signal inhibitor] | –
18 | CCCOC(=O)c1cccc(Nc2nc(CCC)cc(=O)[nH]2)c1 | inconclusive: 1.69% [signal inhibitor] | –
19 | CCOC(=O)Cn1c(=N)n(Cc2ccc(C(C)(C)C)cc2)c2ccccc21 | inconclusive: 1.98% [signal inhibitor] | –
20 | COC(=O)c1cc2oc(C)cc2n1Cc1ccccc1Cl | inactive | –
21 | Cc1nc2cc(-c3ccccc3)nn2c(C)c1CCC(=O)N1CCN(c2ccc(F)cc2)CC1 | – | inconclusive: 10 µM [signal inhibitor]
22 | Cc1ccc(-n2nnnc2SCc2nnc(-c3ccccc3Br)o2)c(C)c1 | inconclusive: 1.99% [signal inhibitor] | –
23 | COc1ccc(OC)c(S(=O)(=O)n2nnc3ccccc32)c1 | inconclusive: -4.48% [signal inhibitor] | –
24 | COc1ccccc1C1NC(=O)c2n[nH]c(-c3cccs3)c21 (configuration not stated) | inconclusive: -1.03% [signal inhibitor] | –

Row | SMILES | IkBa stabilization activation | Potency
25 | CC1CCN(C(=O)c2c(NC(=O)c3ccccc3Cl)sc3c2CCC(C(C)(C)C)C3)CC1 (configuration not stated) | inconclusive: 8.11% [signal inhibitor] | –
26 | COc1cc(-c2nnc3sc(Cc4ccc(Cl)cc4)nn23)cc(OC)c1OC | inactive | –
27 | Cc1cc(C)cc(-n2ccnc2SCC(=O)Nc2cccc3ccccc23)c1 | inconclusive: 1.12% [signal inhibitor] | –
28 | O=C(c1cc2ccccc2oc1=O)N1CCN(Cc2ccc3c(c2)OCO3)CC1 | inconclusive: 4.85% [signal inhibitor] | –
29 | CCc1ccc(OCC(=O)Nc2ccc3c(c2)c2ccccc2n3CC)cc1 | inactive | –
30 | Cc1csc2nc(CSc3nncn3-c3ccccc3)c(Br)n12 | inactive | –
31 | N#Cc1c[nH]n2c(NC3CCCCC3)c(-c3ccc(F)cc3)nc12 | inactive | –
32 | Cc1ccc(C(=O)C2CCN(CC(=O)Nc3ccc4c(c3)OCCO4)CC2)cc1 | inconclusive: 2.62% [signal inhibitor] | –
33 | Nc1ccn([C@H]2O[C@H](CO)[C@@H]3[O][Sn]([c]4ccccc4)([c]4ccccc4)[O][C@H]32)c(=O)n1 | inactive: -0.153% [at 11.4 µM, scaled: untreated 0%, proteasome inhibitor 100%] | –
34 | Cc1cccc(-n2ccnc2SCC(=O)Nc2cccc3ccccc23)c1 | inconclusive: 0.165% [signal inhibitor] | –
35 | O=C(c1cc2ccccc2o1)N1CCN(c2ccccc2Cl)CC1 | inconclusive: 2.88% [signal inhibitor] | –
36 | Cc1cc(C)cc(OCCSc2nc3ccc(NC(=O)c4ccc5c(c4)OCO5)cc3s2)c1 | inconclusive: 2.84% [signal inhibitor] | –
37 | CCc1ccc2[nH]cc(S(=O)(=O)c3ccc(C(C)C)cc3)c(=O)c2c1 | inconclusive: 1.52% [signal inhibitor] | –
38 | Oc1ccccc1-c1nc(-c2cccs2)c(-c2cccs2)[nH]1 | inconclusive: -3.61% [signal inhibitor] | –
39 | COc1ccc(NC(=O)CCc2c(C)nc3c(c2C)c(=O)n(C)c(=O)n3C)c(OC)c1 | inconclusive: -0.107% [signal inhibitor] | –
40 | Cc1nc2cc(NC(=O)N3c4ccccc4CC3C)ccc2n1C (configuration not stated) | inactive | –
41 | COCCNc1ncnc2ccc(-c3ccoc3)cc12 | inactive: -3.37% [at 11.4 µM, scaled: untreated 0%, proteasome inhibitor 100%] | –
42 | CCc1ccc2oc(C(=O)NCC(c3ccc(OC)cc3)N3CCCCC3)c(C)c2c1 (configuration not stated) | inconclusive: -2.52% [signal inhibitor] | –
43 | Cc1cc(C)c2nc(N(Cc3cccnc3)C(=O)CCS(=O)(=O)c3ccccc3)sc2c1 | inactive | –
44 | Cc1cc(NC(=O)C2CCN(S(=O)(=O)c3c(C)noc3C)CC2)ccc1Br | inconclusive: 0.683% [signal inhibitor] | –
45 | CC1=C(C(=O)Nc2cccnc2)C(c2ccc(F)cc2)n2nc(-c3cccc(C)c3)nc2N1 (configuration not stated) | inconclusive: 12.9% [signal inhibitor] | –
46 | COc1ccc(-c2nc3nc(C)cc(C)n3c2Nc2c(C)cccc2C)cc1 | inactive | –
47 | c1ccc2c(c1)[nH]c1nc(SCCN3CCOCC3)nnc12 | inactive | –
48 | O=C(Cn1c(=O)n(Cc2nc(-c3ccccc3)no2)c(=O)c2cc3c(cc21)OCO3)Nc1ccccc1 | inconclusive: 1.17% [signal inhibitor] | –

Row | SMILES | IkBa stabilization activation | Potency
49 | Cc1cccc(-c2cc3nc4c(c(N5CCCC(O)C5)n3n2)CCC4)c1 (configuration not stated) | inconclusive: 4.14% [signal inhibitor] | –
50 | CCOc1ccc(-n2c(SCC(=O)Nc3cc(C)ccc3C)nc3c([nH]c4ccccc43)c2=O)cc1 | inactive | –
51 | COc1cc(-c2nnc(-c3cccnc3)o2)cc(OC)c1OC | inactive | –
52 | CCC(C)n1c(=O)c2sccc2n2c(CCCC(=O)N3CCN(c4ccccc4)CC3)nnc12 (configuration not stated) | inconclusive: -2.47% [signal inhibitor] | –
53 | COc1cccc(Cc2nc3ccccc3nc2SCC(=O)Nc2cccc(C)c2)c1 | inconclusive: 8.76% [signal inhibitor] | –
54 | COc1ccc(CNC(=O)c2sc3nc4n(c(=O)c3c2C)CCCC4)cc1 | inconclusive: 2.79% [signal inhibitor] | –
55 | CC(C)c1ccc(NC(=O)CSC2=Nc3ccccc3C3=NC(CCC(=O)NC4CCCCC4)C(=O)N23)cc1 (configuration not stated) | inconclusive: 5.94% [signal inhibitor] | –
56 | Cn1cccc1CNC(=O)Nc1ccc(Cl)cc1 | inconclusive: 8.07% [signal inhibitor] | –
57 | Cc1noc(C)c1COC(=O)c1ccccc1Oc1ccccc1 | inactive | –
58 | NC(=O)CN1CCN(C(=O)NC2CCCCC2)CC1 | inactive | –
59 | COC(=O)c1cc(Nc2nc3ccccc3nc2NS(=O)(=O)c2ccc(C)cc2)ccc1Cl | – | inconclusive: 15.8 µM [signal inhibitor, partial curve]
60 | Cc1ccc(CN(C(=O)c2ccc(C(C)(C)C)cc2)c2ccccn2)o1 | inconclusive: 2.11% [signal inhibitor] | –
61 | CC(C)CC(=O)Nc1ccc2nc(SCC(=O)N3CCc4ccccc43)sc2c1 | inconclusive: 0.362% [signal inhibitor] | –
62 | CCOc1ccccc1CNC(=O)c1sc2ncccc2c1-n1cccc1 | inconclusive: 4.61% [signal inhibitor] | –
63 | CCn1cnc2sc(-c3ccccc3)cc2c1=O | inactive | –
64 | CCOc1cc(C2c3c(-c4cc(C)ccc4O)n[nH]c3C(=O)N2CCCOC(C)C)ccc1O (configuration not stated) | inactive | –
65 | CCn1ccc2cc(S(=O)(=O)N3CCCN(C(=O)Nc4ccccc4F)CC3)ccc21 | inconclusive: 0.627% [signal inhibitor] | –
66 | CCCc1cc(=O)[nH]c(SCC(=O)N2CCN(c3ccc(F)cc3)CC2)n1 | inconclusive: 13.2% [signal inhibitor] | –
67 | O=C(CSc1nnc(-c2ccc3c(c2)OCO3)o1)Oc1ccccc1 | inconclusive: 3.18% [signal inhibitor] | –
68 | COc1ccc2nc(NC(=O)Cc3ccc(OC)c(S(=O)(=O)N4CCOCC4)c3)sc2c1 | inconclusive: 0.0271% [signal inhibitor] | –
69 | CCOc1ccc(CC(=O)Nc2cccc(-c3nc4cccnc4s3)c2C)cc1 | inconclusive: 0.268% [signal inhibitor] | –
70 | Cc1ccc(-c2cn3cccnc3n2)cc1NC(=O)C(C)(C)Oc1ccc(Cl)cc1 | inconclusive: 0.744% [signal inhibitor] | –
71 | COc1cc([C@H](O)C(=O)O)ccc1O | inactive | –
72 | N#Cc1cccc(-c2cc(NCc3ccccc3)ncn2)c1 | inactive: -0.0734% [at 11.4 µM, scaled: untreated 0%, proteasome inhibitor 100%] | –

From PubChem BioAssay AID445 (National Center for Advancing Translational Sciences (NCATS), 2006)
